Data published in the supplement of paper PMC3334620.
In all, about 33,000 sequences were measured (“E-score (-0.5 to 0.5)”: median about -0.043, highest 2% from about 0.37 on). Some of the results follow.

Biological target: T1, Upc2 (UniProt Q12151)
T1 sequence: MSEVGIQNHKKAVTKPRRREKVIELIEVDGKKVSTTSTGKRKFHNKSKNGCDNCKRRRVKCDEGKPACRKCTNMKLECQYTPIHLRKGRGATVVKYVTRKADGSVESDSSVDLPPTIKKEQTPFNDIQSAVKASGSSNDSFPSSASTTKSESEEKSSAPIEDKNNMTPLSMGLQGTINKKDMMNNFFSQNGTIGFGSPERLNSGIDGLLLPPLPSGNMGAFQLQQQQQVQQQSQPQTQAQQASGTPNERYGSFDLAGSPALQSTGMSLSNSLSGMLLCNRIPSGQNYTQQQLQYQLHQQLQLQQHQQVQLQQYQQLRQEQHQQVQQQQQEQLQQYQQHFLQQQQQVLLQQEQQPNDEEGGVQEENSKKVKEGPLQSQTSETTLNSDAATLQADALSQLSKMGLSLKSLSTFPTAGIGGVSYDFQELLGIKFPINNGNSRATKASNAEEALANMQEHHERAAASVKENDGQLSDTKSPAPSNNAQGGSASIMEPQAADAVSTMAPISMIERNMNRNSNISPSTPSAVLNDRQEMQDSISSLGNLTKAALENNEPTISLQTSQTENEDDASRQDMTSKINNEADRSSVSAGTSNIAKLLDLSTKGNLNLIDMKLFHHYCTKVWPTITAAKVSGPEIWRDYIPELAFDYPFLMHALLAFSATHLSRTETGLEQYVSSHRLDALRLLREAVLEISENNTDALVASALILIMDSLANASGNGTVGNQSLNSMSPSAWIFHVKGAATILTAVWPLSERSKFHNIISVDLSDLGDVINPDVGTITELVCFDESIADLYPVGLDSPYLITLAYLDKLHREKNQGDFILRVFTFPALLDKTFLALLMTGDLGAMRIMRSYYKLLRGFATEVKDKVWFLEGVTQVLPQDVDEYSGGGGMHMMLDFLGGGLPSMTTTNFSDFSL
Assay: PBM E-score (8-mer binding enrichment) (E-score (-0.5 to 0.5)); higher = stronger / more preferred TF binding; most listed sequences are background and not binding sites
Settings: protein concentration: 200 nM; construct: GST-full length
Summary of the method: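 The E-score, a modified Wilcoxon-Mann-Whitney statistic, was computed by the Universal PBM Analysis Suite for every ungapped eight-base word pooled with its reverse complement. Scans behind it were normalised with masliner after bound GST-tagged yeast transcription factors were detected with fluorescent anti-GST. The proteins, at about 100-200 nM, had been applied to universal all-10-mer Agilent arrays made double-stranded by primer extension.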

Sequence | PBM E-score
ACAACTAA | 0.0963
ACTGACAA | -0.102
GCAAGTCA | -0.0503
AATTCAAA | 0.147
ACCAAGGG | -0.0639
GGGTGTAA | 0.0736
GGTCGCGA | 0.174
AGGGTGCC | -0.267
ATAGTCAA | 0.0265
GTGACATA | -0.168
CTCCAGAG | -0.263
CCTCCTAG | -0.31
AGGACTGG | -0.275
CCACAGCC | -0.144
CCCAGTCC | -0.189
CCCACTGA | -0.225
CACAAAGG | -0.0824
AGCAGACA | -0.213
ACGGACAT | 0.185
GGACGCAC | -0.182
GTAGAATA | 0.0114
TCCACGCA | 0.0386
ACGTGACG | -0.059
CTAGCAAC | 0.0763
CACGGAAA | 0.00494

Sequence | PBM E-score
ATCACAAT | 0.0131
TAGATGGA | -0.0969
GAGTCCGC | -0.28
AAGCCAGA | -0.2
AACCTAAT | -0.0308
ACTACCGA | -0.0594
ATTCCGCG | -0.07
AATATGAA | -0.16
CTGCCTGA | -0.158
CAGCTCGG | 0.117
ACACGAAT | 0.258
GTATCGGA | 0.229
GCTACTTA | -0.0738
ACTAACGG | -0.0804
ATGGCGTA | 0.22
GATAACAA | -0.134
GAAGACTA | -0.0458
GATGGCCC | -0.255
ACCGACCT | 0.105
CTCCACGC | -0.159
CCCTAGTA | -0.0085
CATGGTGA | -0.0982
GCGTCCCC | -0.386
AGGGTGGC | -0.182
CGCTCGAG | -0.0469

Sequence | PBM E-score
CTACTCCA | -0.0741
GACTGAGA | 0.0262
ACTCGCCT | -0.118
AACAGGAT | -0.16
GGGCCAAC | -0.262
CTTTGGCA | -0.148
AAAAGGAA | -0.0426
GACTCTGC | -0.122
GGAATGTA | 0.114
CTACCTAA | -0.00333
AGCTGGAC | -0.129
AAAACTAC | 0.137
CATGGCTC | -0.0993
CCCAGGGC | -0.304
GGTCAAAA | -0.016
CATGTGAA | -0.214
CCAATGTC | -0.114
ACCGGACC | 0.15
CCCAACGA | 0.088
ACCTTAGT | -0.0893
GACGACTC | -0.052
TAAGCAGA | -0.223
CCAACGCA | -0.144
AGTCGGCG | -0.179
GAAGTTTA | 0.106

Sequence | PBM E-score
ACTCGTGC | 0.0738
GAGGGATC | -0.133
ATGGCTCA | -0.1
AATGTCCT | -0.151
AGGTACTC | -0.029
ACCTGCGG | -0.147
CACGATCA | -0.0545
CGCATGCC | 0.0548
AGCTGAAA | 0.0112
AGGACTCA | -0.0854
AACCTGAC | -0.0225
AGACCTCA | -0.247
ACGTGTTG | 0.116
CGTCCCAG | -0.321
GTAGGCCA | -0.201
AGATGCTC | -0.00243
CAGTGGCG | -0.244
CTCGCAGC | 0.0159
CGACATAA | 0.186
ACCGATGG | 0.132
AGCTATAC | 0.309
GAAGTTGC | -0.0637
ATCATCCG | 0.132
TCGGCACA | -0.183
ACCCGGCT | -0.129

Sequence | PBM E-score
GACGGCCC | -0.0671
CCGAGTTA | 0.0371
TCTGCACA | -0.141
GACTGTTA | -0.182
CTGTTCCA | -0.182
AAGCAGGC | -0.0981
AAACACTC | 0.00727
AGGATCTC | -0.13
CTGCACAA | -0.231
CAACCGAC | 0.144
AGCACACA | -0.268
ATGGGTGC | -0.143
CTTCGTGA | 0.112
AGGAGTCC | -0.211
ACATTCAC | -0.138
ACGTTAAC | 0.215
CGAAGATA | 0.163
ATTTGATG | -0.0984
ACGCTCTG | 0.0303
CCACCATA | -0.103
GTCTCCCA | -0.241
ATTGACTA | 0.105
CCAGGGAG | -0.166
CTCTTGGA | -0.199
GAAATCTC | 0.227

Sequence | PBM E-score
GGCCGTCA | -0.164
AGAAGGGG | -0.333
CATCCTTA | -0.0613
CCTGCGCG | -0.0152
CCGCCTCA | -0.189
ATGATATG | 0.0923
GTGCACGA | 0.0639
CAGAGAGG | -0.366
GGAGTGAC | -0.0854
CCTTCTCG | -0.115
ATCACCAC | 0.0818
ATAAGGGC | -0.00783
ACTTAGCG | 0.0959
AGGCAAAC | 0.0314
GTCGAACA | 0.111
ACTTTGAA | 0.0741
CAGTAGTC | 0.0468
CACCGCTC | -0.154
ACCCTGAT | -0.168
AACGATGG | 0.391
ACAGAACT | -0.019
AATCTAAA | -0.0794
CTGATATC | -0.00928
AGATGAGA | -0.0597
GCAAGGAC | -0.135

Sequence | PBM E-score
GCACCTGA | -0.236
AAGACAAC | 0.0666
GCGGAAAA | 0.0574
AAGTCTAG | -0.0376
ACCATGAC | -0.0885
ACACAGTA | 0.0483
ATTTGACC | 0.0348
AGGTGACG | -0.152
AAGAGTCG | 0.0777
CCCGAGAA | -0.0906
ATTGAACA | -0.0652
ATACCCAG | -0.192
CACGTCAC | -0.118
GGGATCCA | -0.193
CGTGTAGA | 0.221
CAATATAA | -0.00384
TGCGAGCA | 0.21
CGTACGGC | 0.381
ATATAACG | 0.0972
ACTGTATG | 0.13
CGGCCAGA | -0.139
ACGGCTAG | 0.0255
